# In all, about 52,000 compounds went through this assay and about 1,700 (3.3%) were called active. Rule as the data show it: active = survival mostly below about 52% (no sharp cut-off); inactive = mostly above about 56%. This is one part of the list.
# System: Wild type
# Test: growth inhibition of S. aureus wild type versus tarO mutant, primary screen, teichoic acid synthesis inhibitors, RN4220, OD600 (AID 463173)
# Conditions: S. aureus RN4220 wild type/DeltatarO growth, OD600, 18 h, stronger effect = lower value, screened at 18.75 µg/mL (by protocol)
row,Compound,survival
1,CCOC(=O)c1c(C)[nH]c(CCC(=O)NCCCN2CCN(c3cc(Cl)ccc3C)CC2)c1C,inactive: 78%
2,Cc1c(CCNC(=O)Cc2ccc(F)cc2)sc2nc(-c3ccc(F)cc3)nn12,inactive: 87%
3,CCOc1ccc(C(=O)Nc2cccc(OCc3cc(=O)n4ccccc4n3)c2)cc1,inactive: 123%
4,Cc1cccc(CNS(=O)(=O)c2csc(C(N)=O)c2)c1,inactive: 81%
5,O=C1C(c2cccc(Br)c2)N(CCc2ccccc2)C(=O)CN1C1CCCCC1 (stereo not drawn),inactive: 99%
6,CCOc1cccc(CNCCNC(=O)c2nonc2N)c1,inactive: 75%
7,O=S(=O)(Nc1cccc(-c2ccc(N3CCCCCC3)nn2)c1)c1ccc(F)cc1,inactive: 55%
8,Cc1ccccc1NS(=O)(=O)c1nnc(NC(=O)c2ccc(Cl)cc2)s1,inactive: 47%
9,CCOC(=O)c1[nH]c(C)c(CCC(=O)Nc2ccc(C(C)=O)cc2)c1C,inactive: 59%
10,CCC(=O)N1CCc2cc(Br)cc(S(=O)(=O)N3CCCC(C(=O)Nc4cccc(C)c4C)C3)c21 (stereo not drawn),inactive: 125%
11,Cc1ccccc1NC(=O)c1c(NC(=O)c2ccco2)sc2c1CCC(C(C)(C)C)C2 (stereo not drawn),inactive: 75%
12,COc1ccccc1CNC(=O)CSc1nc2nc(C)c(Cc3ccccc3Cl)c(C)n2n1,inactive: 65%
13,COc1ccc(C(=O)NCCN=C2NS(=O)(=O)c3ccccc32)cc1,inactive: 108%
14,COc1ccc(N2C(=O)CS(=O)(=O)C23C(=O)N(Cc2ccc(F)cc2)c2ccc(C)cc23)cc1 (stereo not drawn),inactive: 83%
15,Cc1ccc(Cl)cc1NC(=O)C1CCCN(S(=O)(=O)c2cccc3cccnc23)C1 (stereo not drawn),inactive: 76%
16,Cc1cc(C)c2c(=O)[nH]c(SCC(=O)NCCc3ccccc3)nc2n1,inactive: 99%
17,CCCCNC(=O)c1nn(-c2ccc(C)cc2)c(=O)n(C)c1=O,inactive: 68%
18,COc1ccc(CCNC(=O)c2cccc(-n3cnc4cccnc43)c2C)cc1OC,inactive: 125%
19,CC(CNC(=O)CN1C(=O)COc2ccc(S(=O)(=O)N3CCCCCC3)cc21)c1ccccc1 (stereo not drawn),inactive: 93%
20,CCc1ccc(Nc2nc(C)cc(C)c2C(N)=O)cc1,inactive: 107%
21,CC(Oc1ccccc1)C(=O)Nc1ccc(OCc2cc(=O)n3ccsc3n2)cc1 (stereo not drawn),inactive: 66%
22,OC(CNc1ccccn1)COc1ccc(OCC(O)CNc2ccccn2)cc1 (stereo not drawn),inactive: 95%

row,Compound,survival
1,CCOC(=O)c1c(S(=O)(=O)N2CCCC(C(=O)Nc3cccc(C#N)c3)C2)c(C)n(C)c1C (stereo not drawn),inactive: 76%
2,Cc1ccccc1CNC(=O)c1cccc(NC(=O)N2CCSc3ncccc32)c1,inactive: 129%
3,Cc1cccc(C)c1NCc1nnc(SCC(N)=O)n1-c1ccccc1,inactive: 110%
4,CCOC(=O)c1c(S(=O)(=O)NCC(=O)Nc2ccc(C)c(N(C)C)c2)c(C)n(C)c1C,inactive: 71%
5,NS(=O)(=O)c1ccc(CCNC(=O)c2ccc3nc(CCc4ccccc4)oc3c2)cc1,inactive: 70%
6,Cc1cc2c(cc1S(=O)(=O)N(C)CC(=O)Nc1ccc(C#N)cc1)OCC(=O)N2,inactive: 64%
7,Cc1ccc(S(=O)(=O)c2cn(CC(=O)Nc3ccccc3C)c3cc4c(cc3c2=O)OCO4)cc1,inactive: 65%
8,Cc1ccc(C(=O)N2Cc3ccccc3CC2C(=O)O)cc1 (stereo not drawn),inactive: 111%
9,CCOc1ccc(CC(=O)Nc2c(C(=O)Nc3ccc(OC)cc3OC)oc3ccccc23)cc1,inactive: 77%
10,Cn1c(=O)c2c(SCC(=O)NCc3ccco3)nc(-c3cccc(F)c3)nc2n(C)c1=O,inactive: 71%
11,COc1ccc(-c2nc3cc(C)ccn3c2NC(=O)c2ccc(F)cc2)cc1,inactive: 73%
12,CCn1c(SCC(=O)Nc2ccc(OC)cc2)nnc1C1CC1,inactive: 98%
13,CCOC(=O)N1CCN(Cc2nc3cc([N+](=O)[O-])ccc3n2C(C)C)CC1,inactive: 84%
14,Cc1cccc(N2CCN(C(=O)CN3C(=O)COc4ccc(S(=O)(=O)N5CCC(C)CC5)cc43)CC2C)c1 (stereo not drawn),inactive: 80%
15,CC(C)c1nc2ccc(C(=O)NCCCN3CCN(c4cccc(Cl)c4)CC3)cc2o1,inactive: 71%
16,O=C(O)c1ccc2c(c1)C(=O)NC2=O,inactive: 113%
17,CCOc1ccc(CNC(=O)c2cnc3sc(N4CCOCC4)nn3c2=O)cc1OC,inactive: 136%
18,CCOc1ccc(CCNC(=O)c2nc(-c3cccc(F)c3)n3c2CCCCC3)cc1OCC,inactive: 152%
19,COC(=O)c1ccc(S(=O)(=O)N(CCO)Cc2cc3cc(OC)c(OC)cc3[nH]c2=O)cc1,inactive: 98%
20,Cc1cccc(N2CCN(C(=O)C3CCCN(S(=O)(=O)c4ccc(Br)s4)C3)CC2)c1C (stereo not drawn),inactive: 92%
21,CCOC(=O)C1CCC(CN(Cc2ccc(Cl)cc2)S(=O)(=O)c2cc(Cl)cc(Cl)c2)CC1 (stereo not drawn),inactive: 59%
22,Cc1ccc2scc(N3CCC(C)CC3)c(=O)c2c1,inactive: 126%

row,Compound,survival
1,O=C(Cc1ccccc1)N1CCC(c2nc3ccccc3[nH]2)CC1,inactive: 117%
2,COc1cccc(NS(=O)(=O)c2ccc3c(c2)[C@H]2C=CC[C@H]2[C@@H](c2ccccc2Cl)N3)c1,inactive: 131%
3,CCN(CC)CCNC(=O)CSc1nc2nc(C)c(Cc3ccccc3)c(C)n2n1,inactive: 66%
4,COc1ccccc1NC(=O)CSc1nc2nccnc2c(=O)n1CCc1c[nH]c2ccccc12,inactive: 73%
5,Cc1cccn2c(Nc3ccccc3)c(-c3cccs3)nc12,inactive: 85%
6,COc1cccc(CNC(=O)Cc2ccc(NC(=O)N3CCSc4ncccc43)cc2)c1OC,inactive: 72%
7,Cc1[nH]c2ccccc2c1C(c1ccccc1)c1ccc(Cl)s1 (stereo not drawn),inactive: 18%
8,Cc1ccccc1CNc1nc(N(C)C)nc2c1cnn2C,inactive: 71%
9,Cc1ccc(NC(=O)C2CCN(S(=O)(=O)c3ccc4[nH]c(=O)ccc4c3)CC2)cc1C,inactive: 89%
10,O=C1CC(Sc2ccccc2)C(=O)N1c1ccccc1 (stereo not drawn),inactive: 99%
11,CCCc1cc(N2CCN(c3ccccc3)CC2)n2cnnc2n1,inactive: 78%
12,CCc1ccc(CN(Cc2ccco2)c2cnc(S(C)(=O)=O)nc2C(=O)Nc2c(C)cccc2C)cc1,inactive: 70%
13,CCOc1ccc(CCNC(=O)Cn2c(-c3cccs3)cc3cc(F)ccc32)cc1OCC,inactive: 82%
14,CCc1cccc(CC)c1NC(=O)Cn1c(=O)c(-c2cc(C)ccc2NC(C)=O)nc2ccccc21,inactive: 88%
15,Cn1c(CSc2nc3ccccc3s2)nnc1SCC(=O)NCCCN1CCOCC1,inactive: 99%
16,O=C1COc2cc(S(=O)(=O)CCC(=O)N3CCN(c4ccccc4F)CC3)c(Cl)cc2N1,inactive: 81%
17,Cn1c(=NC(=O)c2ccc(S(=O)(=O)N3CCCC3)cc2)sc2cc(F)ccc21,inactive: 156%
18,CCc1ccccc1NCc1nnc2n1CCCCC2,inactive: 87%
19,CCOc1ccccc1NC(=O)C1CCN(S(=O)(=O)c2cc(Br)cc3c2N(C(C)=O)CC3)CC1,inactive: 82%
20,COc1cccc(CN2CCCN(CC(=O)Nc3ccc4c(c3)OCCO4)S2(=O)=O)c1,inactive: 71%
21,Cc1ccc(-c2nnc(SCC(=O)c3ccc(Cl)cc3)n2-c2ccccc2)cc1,inactive: 94%
22,Cc1cccc(N2CCN(S(=O)(=O)c3ccc4c(c3)C(C(C)C)C(=O)N4)CC2)c1C (stereo not drawn),inactive: 66%

row,Compound,survival
1,CCNC(=S)N(Cc1ccccc1)Cc1nc2ccccc2c(=O)[nH]1,inactive: 100%
2,Cc1nc2nc(NC(=O)c3ccc(C(C)(C)C)cc3)[nH]n2c(=O)c1Cl,inactive: 101%
3,Cc1oc(-c2ccccc2F)nc1CSCC(=O)N1CCN(c2ccccc2)CC1,inactive: 62%
4,COc1cccc(N(Cc2nnc3n2CCCCC3)C(=O)Nc2ccccc2)c1,inactive: 131%
5,CCOc1ccc(CNC(=O)c2ccc3c(c2)N(CC)CCS3)cc1,inactive: 92%
6,CCCCOc1ccc(C(=O)NCCc2sc(-c3ccc(OC)c(OC)c3)nc2C)cc1,inactive: 81%
7,CN(c1ccccc1)C(c1ccc(F)cc1)c1nnnn1C1CCCC1 (stereo not drawn),inactive: 111%
8,COc1ccc(N2CCN(C(=O)CSc3c4c(nc5ccc(Cl)cc35)CCCC4)CC2)cc1,inactive: 46%
9,O=C(Nc1cccc(O)c1)c1cc2nc(-c3ccc(Br)cc3)cc(C(F)(F)F)n2n1,inactive: 129%
10,CC1(C)NCCNC1=O,inactive: 119%
11,COc1cc(NC(=O)CC2C(=O)N(c3cccc(C)c3)C(=O)N2Cc2ccco2)cc(OC)c1 (stereo not drawn),inactive: 95%
12,COc1ccc(S(=O)(=O)c2c(Nc3c(C)cccc3C)sc(C(=O)c3ccc4c(c3)OCO4)c2N)cc1,inactive: 74%
13,Cc1ccc(-n2nc3c(=O)n(CC(=O)NC(C)C)nc(C)c3c2C)cc1,inactive: 65%
14,COc1ccc(CN(C)c2ccc(-c3nc(-c4ccccc4)no3)cc2[N+](=O)[O-])cc1,inactive: 80%
15,COc1cccc(CCNC(=O)c2cnc3sc(N4CCCCCC4)nn3c2=O)c1,inactive: 80%
16,O=C(Nc1ccc2oc(-c3cccnc3)nc2c1)c1ccc(-c2cccc(Cl)c2)o1,inactive: 77%
17,CC1CCCN(c2ccc(C(=O)NCCc3ccccc3)cn2)C1 (stereo not drawn),inactive: 105%
18,CCC(CC)C(=O)Nc1ccc2nc(SCc3ccccc3)sc2c1,inactive: 88%
19,COc1ccc2c(CC(=O)Nc3ccc(C)cc3)coc2c1,inactive: 90%
20,Cc1cccc(Nc2ncc(NC(=O)c3cccc(F)c3)c(Nc3cccc(C)c3)n2)c1,inactive: 86%
21,CS(=O)(=O)c1ncc(Cl)c(C(=O)Nc2c(C(=O)Nc3ccccc3)oc3ccccc23)n1,inactive: 87%
22,O=C(CSc1nnc(-c2ccncc2)n1-c1ccccc1)Nc1ccc(Cl)c(Cl)c1,inactive: 71%

# Reference: PubChem BioAssay AID463173 (ICCB-Longwood Screening Facility, Harvard Medical School, 2010)
